The supplement of paper PMC12217912
Some of the results follow. The full chains were built here from the parent and the listed change. Inactive controls read about 0.05.

B1: TEV protease; numbered along this chain (parent)
chain: MGESLFKGPRDYNPISSSICHLTNESDGHTTSLYGIGFGPFIITNKHLFRRNNGTLVVQSLHGVFKVKDTTTLQQHLVDGRDMIIIRMPKDFPPFPQKLKFREPQREERICLVTTNFQTKSMSSMVSDTSCTFPSGDGIFWKHWIQTKDGQCGSPLVSTRDGFIVGIHSASNFTNTNNYFTSVPKNFMELLTNQEAQQWVSGWRLNADSVLWGGHKVFMVKPEEPFQPVKEATQL

Variants of: B1
Assay: raw area under fraction-flipped curve 0-4 h after induction (AUC4h, not background-subtracted), DNA-recorder readout of cleavage of the substrate (dimensionless); higher = more cleavage of the substrate by the protease variant
Conditions: temperature: 34 °C; time window: 0-4 h after rhamnose induction
Procedure: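 In vivo DNA recorder in E. coli TOP10(DE3) ΔrhaA at 34 °C. Each TEVp single-site mutant (parent TEVp 0) is paired with a single-site variant of the 7-mer TEVs (canonical ENLYFQ|S). The substrate sits between flexible linkers in a Bxb1-sfGFP-TEVs-SsrA fusion, so cleavage stabilises Bxb1 and speeds flipping of a recombination array, read by NGS. The value is the raw area under the fraction-flipped curve over 0-4 h after rhamnose induction (AUC4h), with ≥20 reads per time point. It is not background-subtracted; inactive controls average about 0.047.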
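Note: Bxb1 expression induced with 0.2% (w/v) L-rhamnose at OD600 near 0.5, cultures sampled hourly, flipped fraction per protease–substrate barcode pair counted by paired-end Illumina sequencing.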

Row | Variant | area with substrate ENLYFAS | area with substrate ENLYFES | area with substrate ENLYFHS | area with substrate ENLYFIS | area with substrate ENLYFKS | area with substrate ENLYFLS | area with substrate ENLYFMS | area with substrate ENLYFNS | area with substrate ENLYFPS | area with substrate ENLYFRS | area with substrate ENLYFSS | area with substrate ENLYFVS | area with substrate ENLYFYS | area with substrate ENLYFCS | area with substrate ENLYFFS | area with substrate ENLYFGS | area with substrate ENLYFTS | area with substrate ENLYFWS | area with substrate ENLYFDS
1 | S18K | 0.0466 | 0.0665 | 0.0556 | 0.0531 | 0.0823 | 0.0655 | 0.0554 | 0.0603 | 0.0539 | 0.0611 | 0.053 | 0.0526 | 0.0536 | – | – | – | – | – | –
2 | S18R | 0.053 | – | – | 0.0589 | 0.0609 | 0.0525 | 0.0566 | 0.0559 | 0.0451 | 0.0489 | – | – | 0.0515 | 0.0604 | 0.0654 | 0.0507 | 0.0578 | – | –
3 | I19H | 0.0536 | 0.0587 | 0.0501 | 0.0485 | 0.0352 | 0.0549 | 0.0645 | 0.0571 | 0.0526 | – | – | 0.0453 | 0.0495 | 0.0424 | 0.0632 | 0.0548 | – | – | –
4 | C20F | 0.0475 | 0.0542 | 0.0355 | – | 0.0659 | 0.0655 | 0.0459 | 0.0297 | 0.0494 | 0.0528 | 0.0916 | 0.0461 | 0.0595 | 0.0373 | 0.0378 | 0.0667 | – | 0.0499 | –
5 | C20M | 0.056 | 0.0564 | 0.0726 | 0.0468 | – | – | 0.0686 | – | 0.0497 | – | 0.06 | 0.0587 | 0.0135 | 0.0558 | 0.0785 | – | 0.0674 | – | 0.0479
6 | C20R | 0.0368 | 0.0405 | 0.0469 | 0.0427 | 0.0435 | – | 0.0481 | 0.0515 | 0.0549 | 0.0484 | 0.0418 | – | 0.0409 | 0.0408 | 0.0596 | 0.0499 | 0.0423 | 0.0311 | –
7 | H21D | 0.0568 | – | 0.0526 | 0.0517 | 0.0495 | 0.0628 | 0.0552 | – | 0.0546 | 0.0593 | 0.0675 | 0.0556 | 0.0396 | 0.0473 | 0.0618 | – | 0.0526 | 0.0592 | –
8 | H21G | 0.0523 | 0.0614 | 0.0482 | 0.0483 | 0.0699 | 0.0476 | 0.0598 | 0.0596 | 0.0556 | 0.0615 | 0.0663 | 0.058 | – | 0.0519 | 0.0681 | 0.0599 | 0.0492 | – | –
9 | H21N | 0.0588 | 0.0621 | 0.0517 | 0.0564 | 0.0617 | 0.0597 | 0.0598 | 0.0599 | 0.0715 | 0.0535 | 0.0769 | 0.0547 | 0.0505 | – | 0.0774 | 0.0698 | 0.061 | 0.0595 | –
10 | H21Y | 0.0356 | 0.0606 | 0.0574 | 0.0579 | 0.0525 | – | 0.0647 | 0.0615 | 0.0572 | 0.0643 | – | – | 0.0786 | 0.0584 | 0.0671 | – | 0.0584 | 0.0545 | 0.0737
11 | L22K | 0.0455 | – | – | 0.041 | 0.044 | 0.0455 | 0.0485 | 0.0527 | 0.0426 | 0.0492 | 0.036 | 0.0368 | 0.0654 | – | 0.06 | – | 0.0412 | 0.0409 | 0.0556
12 | L22V | 0.0707 | 0.0567 | 0.0554 | 0.056 | 0.0602 | 0.0526 | 0.0729 | 0.0683 | 0.0663 | – | 0.0496 | 0.0593 | 0.0506 | 0.0469 | 0.0757 | – | 0.0597 | 0.0548 | 0.0532
